The list shows a part of the results. The full chains were built here from the parent and the listed change. Values near 0.05 are background.
B1: TEV protease; numbered along this chain (parent)
chain: MGESLFKGPRDYNPISSSICHLTNESDGHTTSLYGIGFGPFIITNKHLFRRNNGTLVVQSLHGVFKVKDTTTLQQHLVDGRDMIIIRMPKDFPPFPQKLKFREPQREERICLVTTNFQTKSMSSMVSDTSCTFPSGDGIFWKHWIQTKDGQCGSPLVSTRDGFIVGIHSASNFTNTNNYFTSVPKNFMELLTNQEAQQWVSGWRLNADSVLWGGHKVFMVKPEEPFQPVKEATQL

Variants of: B1
Experiment: raw area under fraction-flipped curve 0-4 h after induction (AUC4h, not background-subtracted), DNA-recorder readout of cleavage of the substrate (dimensionless); higher = more cleavage of the substrate by the protease variant
Settings: temperature: 34 °C; time window: 0-4 h after rhamnose induction
Protocol: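 In vivo DNA recorder in E. coli TOP10(DE3) ΔrhaA at 34 °C. Each TEVp single-site mutant (parent TEVp 0) is paired with a single-site variant of the 7-mer TEVs (canonical ENLYFQ|S). The substrate sits between flexible linkers in a Bxb1-sfGFP-TEVs-SsrA fusion, so cleavage stabilises Bxb1 and speeds flipping of a recombination array, read by NGS. The value is the raw area under the fraction-flipped curve over 0-4 h after rhamnose induction (AUC4h), with ≥20 reads per time point. It is not background-subtracted; inactive controls average about 0.047.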
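Further: Bxb1 expression induced with 0.2% (w/v) L-rhamnose at OD600 near 0.5, cultures sampled hourly, flipped fraction per protease–substrate barcode pair counted by paired-end Illumina sequencing.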

| Variant | area with substrate ENLAFQS | area with substrate ENLCFQS | area with substrate ENLDFQS | area with substrate ENLEFQS | area with substrate ENLFFQS | area with substrate ENLHFQS | area with substrate ENLKFQS | area with substrate ENLLFQS | area with substrate ENLNFQS | area with substrate ENLRFQS | area with substrate ENLSFQS | area with substrate ENLTFQS | area with substrate ENLGFQS | area with substrate ENLIFQS | area with substrate ENLPFQS | area with substrate ENLQFQS | area with substrate ENLMFQS | area with substrate ENLWFQS | area with substrate ENLVFQS |
| --- | --- | --- | --- | --- | --- | --- | --- | --- | --- | --- | --- | --- | --- | --- | --- | --- | --- | --- | --- |
| MGESLFKGPRDYNPISSSICHLTNESDGHTTSLYGIGFGPFIITNKHLFRRNNGTLVVQSLHGVFKVKDTTTLQQHLVDGRDMIIIRMPKDFPPFPQKLKFREPQREERICLVTTNFQTKSMSSMVSDTSCTFPSGDGIFWKHWIQTKDGQCGSPLVSTRDGFIVGIHSASNFTNSNNYFTSVPKNFMELLTNQEAQQWVSGWRLNADSVLWGGHKVFMVKPEEPFQPVKEATQL [T176S] | 0.0603 | 0.0565 | 0.0532 | 0.0715 | 0.0565 | 0.0681 | 0.0623 | 0.0594 | 0.0648 | 0.067 | 0.0723 | 0.0539 | – | – | – | – | – | – | – |
| MGESLFKGPRDYNPISSSICHLTNESDGHTTSLYGIGFGPFIITNKHLFRRNNGTLVVQSLHGVFKVKDTTTLQQHLVDGRDMIIIRMPKDFPPFPQKLKFREPQREERICLVTTNFQTKSMSSMVSDTSCTFPSGDGIFWKHWIQTKDGQCGSPLVSTRDGFIVGIHSASNFTNNNNYFTSVPKNFMELLTNQEAQQWVSGWRLNADSVLWGGHKVFMVKPEEPFQPVKEATQL [T176N] | 0.0669 | 0.0646 | – | 0.0679 | 0.072 | 0.0655 | 0.0561 | – | 0.0621 | 0.0607 | 0.0507 | – | 0.0744 | 0.0672 | 0.0643 | 0.0657 | – | – | – |
| MGESLFKGPRDYNPISSSICHLTNESDGHTTSLYGIGFGPFIITNKHLFRRNNGTLVVQSLHGVFKVKDTTTLQQHLVDGRDMIIIRMPKDFPPFPQKLKFREPQREERICLVTTNFQTKSMSSMVSDTSCTFPSGDGIFWKHWIQTKDGQCGSPLVSTRDGFIVGIHSASNFTNTNNYFTSVPKNFMELLTNQEAQQWVSGWHLNADSVLWGGHKVFMVKPEEPFQPVKEATQL [R204H] | 0.0725 | 0.0682 | 0.0653 | 0.161 | 0.0837 | 0.0854 | 0.0836 | 0.0752 | 0.0752 | – | 0.0728 | – | 0.0683 | 0.0784 | 0.0558 | 0.087 | 0.07 | – | – |
| MGESLFKGPRDYNPISSSICHLTNESDGHTTSLYGIGFGPFIITNKHLFRRNNGTLVVQSLHGVFKVKDTTTLQQHLVDGRDMIIIRMPKDFPPFPQKLKFREPQREERICLVTTNFQTKSMSSMVSDTSCTFPSGDGIFWKHWIQTKDGQCGSPLVSTRDGFIVGIHSASNFTNTNNYFTSVPKNFMELLTNQEAQQWTSGWRLNADSVLWGGHKVFMVKPEEPFQPVKEATQL [V200T] | 0.0701 | – | 0.063 | – | 0.0637 | 0.074 | 0.0714 | – | 0.0615 | 0.0659 | 0.0666 | – | – | – | – | – | 0.0759 | – | – |
| MGESLFKGPRDYNPISSSICHLTNESDGHTTSLYGIGFGPFIITNKHLFRRNNGTLVVQSLHGVFKVKDTTTLQQHLVDGRDMIIIRMPKDFPPFPQKLKFREPQREERICLVTTNFQTKSMSSMVSDTSCTFPSGDGIFWKHWIQTKDGQCGSPLVSTRDGFIVGIHSASNFTNTNNYFTSVPKNFMELLTNQEAQQWVSGARLNADSVLWGGHKVFMVKPEEPFQPVKEATQL [W203A] | 0.0626 | 0.0651 | 0.064 | 0.0677 | 0.0527 | 0.0618 | 0.0623 | – | 0.0661 | – | 0.0701 | – | – | – | 0.0582 | 0.0737 | – | – | – |
| MGESLFKGPRDYNPISSSICHLTNESDGHTTSLYGIGFGPFIITNKHLFRRNNGTLVVQSLHGVFKVKDTTTLQQHLVDGRDMIIIRMPKDFPPFPQKLKFREPQREERICLVTTNFQTKSMSSMVSDTSCTFPSGDGIFWKHWIQTKDGQCGSPLVSTRDGFIVGIHSASNFTNTNNYFTSVVKNFMELLTNQEAQQWVSGWRLNADSVLWGGHKVFMVKPEEPFQPVKEATQL [P184V] | 0.0544 | 0.0083 | 0.0712 | 0.0584 | 0.064 | 0.0618 | – | – | 0.0584 | 0.0606 | – | 0.0638 | 0.0724 | – | – | 0.0565 | – | 0.0494 | – |
| MGESLFKGPRDYNPISSSICHLTNESDGHTTSLYGIGFGPFIITNKHLFRRNNGTLVVQSLHGVFKVKDTTTLQQHLVDGRDMIIIRMPKDFPPFPQKLKFREPQREERICLVTTNFQTKSMSSMVSDTSCTFPSGDGIFWKHWIQTKDGQCGSPLVSTRDGFIVGIHSASNFTNTNNYFTSVLKNFMELLTNQEAQQWVSGWRLNADSVLWGGHKVFMVKPEEPFQPVKEATQL [P184L] | 0.0527 | – | 0.0435 | – | 0.0586 | – | 0.0669 | – | 0.0632 | 0.0554 | – | 0.0348 | – | – | – | 0.0498 | 0.0612 | 0.06 | 0.0527 |
| MGESLFKGPRDYNPISSSICHLTNESDGHTTSLYGIGFGPFIITNKHLFRRNNGTLVVQSLHGVFKVKDTTTLQQHLVDGRDMIIIRMPKDFPPFPQKLKFREPQREERICLVTTNFQTKSMSSMVSDTSCTFPSGDGIFWKHWIQTKDGQCGSPLVSTRDGFIVGIHSASNFTNTNNYFTSVNKNFMELLTNQEAQQWVSGWRLNADSVLWGGHKVFMVKPEEPFQPVKEATQL [P184N] | 0.0568 | 0.0679 | 0.0599 | – | 0.0622 | 0.0593 | 0.0614 | 0.0606 | 0.0452 | 0.0639 | 0.0431 | – | – | 0.0572 | 0.0797 | 0.0749 | – | 0.0436 | – |
| MGESLFKGPRDYNPISSSICHLTNESDGHTTSLYGIGFGPFIITNKHLFRRNNGTLVVQSLHGVFKVKDTTTLQQHLVDGRDMIIIRMPKDFPPFPQKLKFREPQREERICLVTTNFQTKSMSSMVSDTSCTFPSGDGIFWKHWIQTKDGQCGSPLVSTRDGFIVGIHSASNFTNTNNYFTSVCKNFMELLTNQEAQQWVSGWRLNADSVLWGGHKVFMVKPEEPFQPVKEATQL [P184C] | 0.0508 | – | – | 0.0623 | 0.0964 | 0.0653 | 0.0691 | 0.0539 | 0.0695 | – | – | – | 0.069 | 0.0722 | 0.0617 | – | 0.0523 | 0.0568 | 0.0769 |
| MGESLFKGPRDYNPISSSICHLTNESDGHTTSLYGIGFGPFIITNKHLFRRNNGTLVVQSLHGVFKVKDTTTLQQHLVDGRDMIIIRMPKDFPPFPQKLKFREPQREERICLVTTNFQTKSMSSMVSDTSCTFPSGDGIFWKHWIQTKDGQCGSPLVSTRDGFIVGIHSASNFTNTNNYFTSVIKNFMELLTNQEAQQWVSGWRLNADSVLWGGHKVFMVKPEEPFQPVKEATQL [P184I] | 0.0621 | 0.0604 | 0.0607 | 0.047 | 0.0575 | 0.0521 | 0.0721 | 0.0622 | – | 0.0704 | 0.0724 | 0.0659 | 0.0959 | 0.0587 | 0.0571 | 0.0502 | 0.04 | 0.0925 | – |

From the supplement of paper PMC12217912
